Laboratory results as given in the supplement of paper PMC3334620.
The full ranking holds about 33,000 sequences; the median of “E-score (-0.5 to 0.5)” is about -0.053, and the highest 2% start at about 0.37. Some of the results follow.

molecular target: Hap1 (UniProt P0CE41); experiment: PBM E-score (8-mer binding enrichment) (E-score (-0.5 to 0.5)); higher = stronger / more preferred TF binding; most listed sequences are background and not binding sites; conditions: protein concentration: 200 nM; construct: GST-DNA-binding domain
Procedure, shortened: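 E-scores (a modified Wilcoxon-Mann-Whitney statistic) were assigned by the Universal PBM Analysis Suite to every ungapped eight-base word pooled with its reverse complement. The input came from universal all-10-mer Agilent arrays made double-stranded by primer extension and probed with GST-tagged yeast transcription factors at about 100-200 nM. Fluorescent anti-GST detected bound protein, and masliner normalised the scans.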

UniProt P0CE41, sequence (P0CE41 whole entry, the tested form may be a part): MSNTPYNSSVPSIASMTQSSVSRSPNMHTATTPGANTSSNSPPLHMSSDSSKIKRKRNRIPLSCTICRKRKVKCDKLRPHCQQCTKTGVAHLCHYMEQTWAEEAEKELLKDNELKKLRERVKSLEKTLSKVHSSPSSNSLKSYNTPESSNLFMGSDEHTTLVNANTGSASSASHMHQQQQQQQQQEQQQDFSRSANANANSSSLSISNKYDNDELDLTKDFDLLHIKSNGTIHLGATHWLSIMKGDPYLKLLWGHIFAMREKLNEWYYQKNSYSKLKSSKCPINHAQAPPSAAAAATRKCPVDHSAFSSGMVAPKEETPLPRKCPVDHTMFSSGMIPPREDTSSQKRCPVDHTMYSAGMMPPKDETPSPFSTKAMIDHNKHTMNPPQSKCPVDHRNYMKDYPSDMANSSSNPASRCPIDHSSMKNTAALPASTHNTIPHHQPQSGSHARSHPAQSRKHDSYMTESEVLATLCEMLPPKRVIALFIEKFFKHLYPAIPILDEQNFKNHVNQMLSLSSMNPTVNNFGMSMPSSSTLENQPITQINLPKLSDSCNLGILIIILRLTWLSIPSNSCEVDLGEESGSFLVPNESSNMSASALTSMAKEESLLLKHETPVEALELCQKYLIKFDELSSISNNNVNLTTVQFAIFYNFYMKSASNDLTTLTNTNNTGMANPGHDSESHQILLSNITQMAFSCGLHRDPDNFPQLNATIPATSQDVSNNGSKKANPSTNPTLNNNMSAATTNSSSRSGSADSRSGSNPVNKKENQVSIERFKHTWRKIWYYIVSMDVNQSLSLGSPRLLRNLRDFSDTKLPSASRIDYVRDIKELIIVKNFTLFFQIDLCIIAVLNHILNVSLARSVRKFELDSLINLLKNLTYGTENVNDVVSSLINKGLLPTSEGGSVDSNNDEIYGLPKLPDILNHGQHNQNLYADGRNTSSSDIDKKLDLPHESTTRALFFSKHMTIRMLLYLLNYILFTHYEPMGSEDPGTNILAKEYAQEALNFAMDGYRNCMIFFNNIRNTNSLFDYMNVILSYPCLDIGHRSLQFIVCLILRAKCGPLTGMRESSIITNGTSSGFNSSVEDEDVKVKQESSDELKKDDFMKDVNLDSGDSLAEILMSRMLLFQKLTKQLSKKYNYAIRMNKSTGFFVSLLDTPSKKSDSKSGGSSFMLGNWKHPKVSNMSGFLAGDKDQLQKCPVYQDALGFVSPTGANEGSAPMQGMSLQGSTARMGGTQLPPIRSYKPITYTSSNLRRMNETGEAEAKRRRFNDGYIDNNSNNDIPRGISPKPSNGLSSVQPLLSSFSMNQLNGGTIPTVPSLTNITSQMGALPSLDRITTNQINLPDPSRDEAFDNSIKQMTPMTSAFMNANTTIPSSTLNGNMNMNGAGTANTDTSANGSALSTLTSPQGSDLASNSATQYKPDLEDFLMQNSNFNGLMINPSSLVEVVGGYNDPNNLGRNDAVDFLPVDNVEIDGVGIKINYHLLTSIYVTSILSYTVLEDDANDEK

Row | Sequence | PBM E-score
1 | ACTAACCT | 0.00719
2 | CGGACGAG | 0.387
3 | AATGAATA | -0.157
4 | GTACCGCA | 0.236
5 | CCAACACG | -0.161
6 | GCCTGTCC | -0.0412
7 | GGCCCCCA | -0.135
8 | CTACTAGC | 0.0698
9 | ACGACCCC | -0.0829
10 | ACAACAGT | -0.083
11 | AACGGCAT | 0.278
12 | CAGATGAC | -0.0934
13 | ACTCAAAC | -0.147
14 | CTCAGCGC | -0.0355
15 | GACTTACC | 0.262
16 | GGGGGGTA | 0.047
17 | AACAATTG | -0.342
18 | CGTGAGAC | 0.00208
19 | GATCAACA | -0.284
20 | AAACCTGG | -0.0932
21 | CACGAGCA | -0.24
22 | TCCGCAGA | 0.205
23 | ATCCGCGC | 0.245
24 | AATCTCGG | 0.358
25 | CATACATG | -0.244

Row | Sequence | PBM E-score
26 | AGAGGAAG | -0.236
27 | GGGCGCGA | 0.235
28 | CTCCAAGC | -0.0834
29 | CAGCCTCC | -0.111
30 | ATGTTACG | -0.166
31 | ACTCGCAA | -0.231
32 | AAATCACG | -0.0297
33 | CCCTCAGC | -0.0707
34 | CCCGCGGC | 0.284
35 | GGCCTCAA | 0.082
36 | AGCCCCGG | 0.373
37 | GGGTTTTA | 0.288
38 | ACGCCCGG | 0.377
39 | AAGTCTTG | -0.0755
40 | CGGGGCTA | 0.357
41 | CTTTACTC | -0.0299
42 | AGTACCCA | -0.184
43 | CTGCTCCC | -0.0611
44 | TCCTTAAA | -0.369
45 | AAAAGCTA | -0.225
46 | ATAAAGTA | -0.119
47 | CACCCTCA | -0.191
48 | ATGCAAGA | -0.166
49 | GAAGTCTA | -0.151
50 | ACCAGGCG | -0.0945

Row | Sequence | PBM E-score
51 | AGGATAAT | -0.2
52 | AACATCTT | -0.0575
53 | AGCATCGA | -0.081
54 | TGTGCGAA | -0.172
55 | CCATTAAG | 0.021
56 | AAAACATT | -0.309
57 | GCAATGAC | -0.195
58 | CGGTAGTC | 0.197
59 | TCCCACAA | -0.0573
60 | ATTAAAAT | -0.0256
61 | CTTATTCA | -0.26
62 | TAATAAGA | -0.103
63 | CGGGACTC | 0.133
64 | ATCCCTGG | -0.246
65 | AGAAATAT | 0.0904
66 | AATAACTA | -0.237
67 | CGTCGAGA | -0.292
68 | GACGTGGC | -0.172
69 | CGGAGTAA | 0.37
70 | AAACACGC | 0.133
71 | CAAGTAGG | -0.229
72 | GACCTCTA | -0.11
73 | GACGATCA | -0.11
74 | ACGTCGCG | 0.0194
75 | GTCATAAA | -0.0397

Row | Sequence | PBM E-score
76 | GCTTTGGA | 0.0583
77 | AACATCGC | 0.0315
78 | CAACTCCA | -0.0501
79 | AATTGGAT | -0.153
80 | ATAAAGTG | -0.0476
81 | CCTAGGAA | -0.179
82 | GATGTCTA | -0.0542
83 | CCTTTACG | -0.0181
84 | AATGGAAT | 0.0363
85 | CTGAAGCC | -0.0718
86 | CTGACTCA | -0.326
87 | CAGTACGC | -0.0401
88 | CAATGTGG | -0.121
89 | ACTAGATA | -0.0762
90 | ATAGTTTC | -0.0377
91 | GGCGAGAC | -0.0884
92 | ATTTTGTC | 0.0856
93 | CAGTCGAA | -0.204
94 | AAGTTATT | 0.0401
95 | ACGCTAAA | -0.127
96 | ACCTTCAT | 0.0855
97 | GGCCATCA | -0.0951
98 | GATCTGAA | -0.206
99 | CAGTGCCC | 0.00772
100 | AATACTCC | 0.0501

Row | Sequence | PBM E-score
101 | CGTCGGGC | 0.289
102 | GAACTAAC | 0.212
103 | CTTATCCC | 0.158
104 | CCTTTCCA | 0.0404
105 | GCCTCTAA | -0.184
106 | CGATAACC | 0.336
107 | GGTCAGAC | -0.117
108 | ATCCATCA | -0.143
109 | GCACGGGA | 0.115
110 | GACCTTTA | -0.0412
111 | CTGCCCGC | 0.129
112 | CGGTTATA | 0.371
113 | GAAGCGTA | 0.0237
114 | ACTGAGGC | 0.00789
115 | AATCTATC | 0.0503
116 | AACTGGAT | 0.074
117 | AAGAGGAT | -0.151
118 | ACAAGATC | -0.204
119 | CTATGCAG | -0.193
120 | AAAATTGT | -0.0492
121 | AGGAACAC | 0.0612
122 | ATGCGACG | 0.0561
123 | AGTCATTC | -0.166
124 | CTTACGAA | -0.147
125 | GAGGGCAA | 0.0423

Row | Sequence | PBM E-score
126 | TACTGGCA | -0.169
127 | CACCTAGA | -0.3
128 | TACTCGGA | 0.312
129 | AACCTACA | 0.00394
130 | ACTCTTCC | -0.13
131 | AACACTGG | -0.0634
132 | CGATGGAA | 0.0469
133 | ACAGCCAG | -0.222
134 | ATTCATCA | -0.0185
135 | ATAAGAGC | 0.103
136 | GAAGACCA | 0.029
137 | GAGTAGAA | -0.156
138 | CGGAAGGC | 0.137
139 | ACGCGGCC | 0.0636
140 | AGGTAGTA | -0.0824
141 | CAGCCCGA | 0.188
142 | ACGCAGCG | -0.198
143 | GAGCAGCC | -0.0769
144 | GTATGTCA | -0.25
145 | CCTGCTAA | -0.181
146 | GCGCACCA | 0.097
147 | AGCCGTAA | 0.152
148 | TCTAAACA | -0.229
149 | AGCGGTGA | 0.14
150 | ACTAAGAG | 0.0875

Row | Sequence | PBM E-score
151 | AGTAATAA | -0.309
152 | CGCATGCA | 0.137
153 | AGGCCGTA | 0.0497
154 | AGAAAGAC | -0.0936
155 | GAAATGCC | 0.16
156 | GATTTCGA | 0.0636
157 | CAGAACAG | -0.164
158 | CCCGGGAG | 0.299
159 | CATAAGTC | 0.014
160 | CTACATCC | 0.0993
161 | CAGTACAC | -0.168
162 | AATAGTGC | 0.0794
163 | GGACGTCC | 0.0941
164 | CCCCAACC | -0.108
165 | TCCCTGCA | -0.109
166 | GACGTGCC | 0.0645
167 | AGGGGGTC | -0.19
168 | ATGGCCTA | 0.0189
169 | ATTAACGG | 0.35
170 | GTTGAGAA | -0.157
171 | GTACTGCA | -0.0202
172 | ACTGCTCT | -0.135
173 | GTGTCAGA | -0.178
174 | GACCAATC | -0.0486
175 | ACTTCTCG | 0.165

Row | Sequence | PBM E-score
176 | AACTCGTC | -0.272
177 | AAGTTGAG | -0.075
178 | GGATTCGA | -0.0199
179 | AAGACTGT | -0.333
180 | CAGGTCGA | -0.154
181 | ACGAAACC | 0.121
182 | GCACCGAA | 0.181
183 | AATTCGAG | -0.267
184 | CCATTTAA | -0.249
185 | ATCCTTGG | -0.0799
186 | AGAAAAAA | -0.0848
187 | CACTCAGC | -0.00402
188 | CATTGGGG | -0.191
189 | CAGGGTTC | -0.116
190 | ATCCATTC | 0.0139
191 | AAAGCGAA | 0.144
192 | AGTCTAGG | -0.31
193 | AGGGGCAA | -0.0261
194 | AAGTGATG | -0.13
195 | AGTGTTGA | -0.0591
196 | GTAAGACA | -0.0427
197 | TATTTAAA | 0.124
198 | AATTGCAC | -0.191
199 | AGTTCCAA | -0.0617
200 | GGGACCGA | 0.329

Row | Sequence | PBM E-score
201 | GGTATTAC | 0.296
202 | CGTACTGC | -0.201
203 | AATACCCA | 0.0741
204 | AAACAAGG | -0.127
205 | GTTTGAGA | -0.304
206 | TAAGCAAA | -0.0919
207 | CAGTACCG | 0.229
208 | GCAACGGA | 0.355
209 | GAAAAATC | 0.0852
210 | GACGTTTA | -0.287
211 | CTGTCTAC | -0.201
212 | ACTGGCCG | 0.212
213 | AGGATGTA | -0.0846
214 | ATAGAAGC | -0.0271
215 | CGTAGAAC | -0.106
216 | AACTCACC | 0.0211
217 | ACAATCTC | -0.00292
218 | CAGGGGGC | -0.187
219 | AGCGGTAG | -0.18
